# Laboratory results published in the supplement of paper PMC3334620.
# Over roughly 33,000 sequences, “E-score (-0.5 to 0.5)” has its median near -0.013; the highest 2% begin near 0.3. The list shows a part of the results.
# Target: T1, Msn1 (UniProt P22148)
# T1 sequence: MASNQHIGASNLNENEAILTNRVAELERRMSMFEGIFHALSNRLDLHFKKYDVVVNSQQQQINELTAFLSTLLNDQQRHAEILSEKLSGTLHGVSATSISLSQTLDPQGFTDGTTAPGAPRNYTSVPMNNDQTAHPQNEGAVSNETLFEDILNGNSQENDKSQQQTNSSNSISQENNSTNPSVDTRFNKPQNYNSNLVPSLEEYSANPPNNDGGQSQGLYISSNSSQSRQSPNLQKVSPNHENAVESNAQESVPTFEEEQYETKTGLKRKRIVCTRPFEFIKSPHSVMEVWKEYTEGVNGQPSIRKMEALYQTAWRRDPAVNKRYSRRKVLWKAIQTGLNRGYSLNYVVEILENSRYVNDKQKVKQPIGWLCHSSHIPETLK
# Assay: PBM E-score (8-mer binding enrichment) (E-score (-0.5 to 0.5)); higher = stronger / more preferred TF binding; most listed sequences are background and not binding sites
# Details: protein concentration: 200 nM; construct: GST-full length
# Description: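 Universal 'all 10-mer' protein binding microarrays (Agilent AMADID 015681) probed with GST-tagged S. cerevisiae TFs (full-length or DBD) made by in vitro transcription/translation (PURExpress), about 100-200 nM. Bound TF was detected with fluorescent anti-GST. Each ungapped 8-mer (which stands for itself and its reverse complement) is scored by the PBM enrichment score (E-score), a modified Wilcoxon-Mann-Whitney statistic from -0.5 to +0.5, computed with the Universal PBM Analysis Suite. Scale: above 0.35 generally sequence-specific binding.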
row,Sequence,PBM E-score
1,GCCCGACA,0.0966
2,CGCGTCCG,0.182
3,ACGATGAC,0.0423
4,GTCAATCA,-0.0572
5,AATGAGCC,-0.266
6,AAATGTCT,0.486
7,ATCTTCCC,0.00877
8,CCAAGATC,-0.0303
9,AAAGCTGC,0.113
10,ATGCCTCG,0.0768
11,ACCGGGCA,0.0679
12,AACGGTGG,-0.0814
13,CATAAGAG,-0.121
14,AGAAGCTC,-0.0296
15,GGAGTGCC,-0.122
16,AGAGAGGG,-0.234
17,CATGCAGC,-0.289
18,GAACTCCC,-0.0317
19,ACTTTATC,0.232
20,GGGCCTCA,-0.254
21,GGAGCTTA,-0.137
22,ACCGACTA,-0.24
23,AGCTGCAA,-0.117
24,GACCCCGA,-0.0373
25,GGGTGGAC,0.0244

row,Sequence,PBM E-score
1,CGATTTGA,-0.163
2,CTAATTGC,0.0543
3,CAGCGCCC,-0.322
4,GGGTCTCA,-0.193
5,GTCGGCAA,0.0539
6,CCTGTTGC,-0.11
7,CAAATGCC,-0.0886
8,CCGAGCGA,0.108
9,GGGATAAC,-0.104
10,AAGACCCG,-0.16
11,AATAGGCT,0.00282
12,AACAGCGC,-0.176
13,GGTTCCAA,0.105
14,ACAACTAG,0.0515
15,AAGCCTCA,-0.318
16,TCTCCTAA,-0.167
17,ACTCCTCC,-0.164
18,AGGCATGA,-0.183
19,TCGAAAAA,0.211
20,ACGTAAAC,-0.096
21,TACTTCGA,0.221
22,AAACCGTC,-0.0905
23,AATGCTAT,0.0248
24,GGGCTAGA,-0.0378
25,ACGTTCAT,-0.0432

row,Sequence,PBM E-score
1,GACACCCA,-0.0608
2,GGGCCAGA,-0.24
3,AAGAATCT,0.00385
4,ACTCTTAG,-0.0534
5,GATCTCCA,-0.103
6,GAACCAAC,-0.0556
7,ATCCGCCA,-0.148
8,GATATCGA,-0.0325
9,GATACGAC,0.163
10,GGCTTCCC,-0.146
11,AGGTCGAT,0.149
12,GTGCCTTA,-0.17
13,AGTACCTC,-0.0524
14,GTTTAACA,-0.112
15,ATGTCTAA,0.403
16,AGTGATAC,-0.0394
17,GAACAGGA,0.0425
18,CAAGTTGC,-0.0163
19,CCTCCACA,-0.153
20,GGTTCCCA,-0.0277
21,GGAATGAC,0.114
22,CGCCGTTA,-0.0247
23,ATTGGAGC,0.0666
24,AAATCAGT,0.0259
25,GTCACGAC,0.287

row,Sequence,PBM E-score
1,ATAACCAC,-0.0969
2,CCCAACAG,-0.158
3,ACGTTAGA,0.106
4,CAGACGAC,-0.114
5,CAAACGCC,0.0963
6,AAGTCACA,0.127
7,ACGCACAC,-0.0696
8,AGTGTGAT,-0.0635
9,ATAAGCGA,0.0913
10,CGTCACAG,0.059
11,CGCACGAC,-0.0608
12,ATTGCACA,0.0243
13,CGGGGAGC,-0.157
14,GAGAAGTA,-0.151
15,CCTGTCAC,0.0491
16,AGTCGAAT,0.0294
17,ACCCACCT,-0.157
18,AGGTGGGC,-0.185
19,AACCGTTC,0.0531
20,GTGAAGTA,0.0228
21,CCCGAGGG,-0.0369
22,TATAACAA,0.0954
23,ATTTCGTC,0.109
24,CCTGTACC,-0.175
25,AATGAGAA,0.0795

row,Sequence,PBM E-score
1,CCGACAAC,0.167
2,ATCATGTG,0.0113
3,AACTTAGT,-0.075
4,GGCTCCCC,-0.334
5,ATAATGCG,0.0607
6,CGGGATAC,-0.00668
7,GCCTGGGA,-0.0263
8,ACTGATCG,-0.0817
9,CATCGAAC,-0.0432
10,ACGGCAGA,0.0753
11,AAACTACA,0.0647
12,GCCATGGC,-0.165
13,ACAGAAGC,0.16
14,CTCCCAGA,-0.153
15,AGCACCCA,-0.243
16,ATACGAAC,0.0898
17,GAGGGGGA,-0.268
18,AGTTCCTA,-0.0032
19,TACTATAA,0.161
20,CAGCAACC,-0.183
21,CGAGAGCG,-0.172
22,GTTTACGA,-0.033
23,ACCCATAT,0.0298
24,AACGATGA,-0.0234
25,CCGCTCCG,-0.0191

row,Sequence,PBM E-score
1,CAGGCGCG,-0.0355
2,ACTCGGAG,-0.0122
3,ACCTGATC,-0.125
4,TATCAAGA,0.121
5,AACGCTTG,-0.0887
6,TGTATAAA,0.0755
7,AAACCCTC,-0.172
8,ACAGAACC,-0.0903
9,CTGACTCC,-0.272
10,GCACGGTA,-0.163
11,CTCTTAAC,-0.0299
12,ACGAGAAC,-0.00461
13,ACATTTAA,0.324
14,GCCCGCAC,-0.0809
15,ACGATATG,0.116
16,ATGTACGC,0.141
17,GCAATCAC,0.031
18,AATGAGGC,-0.167
19,ATTCCCAC,0.028
20,AAAGGCGG,0.0683
21,TAGGCAAA,0.0155
22,GCACTTCC,-0.215
23,AAACCACT,0.0652
24,GCCCGGAC,0.00869
25,AATAGCGA,0.211

row,Sequence,PBM E-score
1,CTGATTGA,-0.0304
2,CCTCCGAA,0.0319
3,GAACAGGC,-0.164
4,AATACCTG,-0.0275
5,ACTCGCTA,-0.0369
6,AATAGGTC,0.0197
7,ACCGATTA,-0.0202
8,TAATCACA,-0.114
9,ATGAACCG,0.113
10,ACGAAAGC,0.0616
11,AATCGTCG,-0.0329
12,ACCTTAAG,-0.0467
13,CCCCGAAA,0.132
14,GAGGTCAC,-0.0184
15,CGACCCCC,-0.477
16,ACCGGTGG,-0.195
17,CCACAGAC,0.104
18,GGACTCAC,-0.116
19,AATGACCG,0.081
20,CCGTCGAC,-0.0376
21,GCTGATAC,-0.0226
22,CCCCAGGA,-0.341
